Assay results taken from the supplement of paper PMC8728848.
The other results are listed elsewhere or left out.

What was measured:
Assay in all cases: glycan array binding signal (z-score within array); higher = stronger binding
Details in all cases: glycan notation: IUPAC condensed, linker removed
[1] = molecular target: Fuc(a1-2)Gal
In short: (§1)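 Arrays were curated from the Consortium for Functional Glycomics database, 3228 in total, and kept only where the protein sequence was available. Binding is expressed as a within-array Z-score. This score was averaged across arrays of the same protein sequence at different concentrations or buffers and across linkers, and negative values can be read as non-binding.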

[2] = molecular target: Fuc(a1-2)Gal(b1-3)GalNAc
In short: as §1

[3] = molecular target: Fuc(a1-2)Gal(b1-3)GalNAc(a1-3)[Fuc(a1-2)]Gal(b1-4)Glc
In short: as §1

[4] = molecular target: Fuc(a1-2)Gal(b1-3)GalNAc(a1-3)[Fuc(a1-2)]Gal(b1-4)GlcNAc
In short: as §1

[5] = molecular target: Fuc(a1-2)Gal(b1-3)GalNAc(b1-3)Gal
In short: as §1

[6] = molecular target: Fuc(a1-2)Gal(b1-3)GalNAc(b1-3)Gal(a1-4)Gal(b1-4)Glc
In short: as §1

[7] = molecular target: Fuc(a1-2)Gal(b1-3)GalNAc(b1-4)[Neu5Ac(a2-3)]Gal(b1-4)Glc
In short: as §1

[8] = molecular target: Fuc(a1-2)Gal(b1-3)GlcNAc
In short: as §1

[9] = molecular target: Fuc(a1-2)Gal(b1-3)GlcNAc(b1-2)Man(a1-3)[Fuc(a1-2)Gal(b1-3)GlcNAc(b1-2)Man(a1-6)]Man(b1-4)GlcNAc(b1-4)GlcNAc
In short: as §1

[10] = molecular target: Fuc(a1-2)Gal(b1-3)GlcNAc(b1-2)Man(a1-3)[Fuc(a1-2)Gal(b1-3)GlcNAc(b1-2)Man(a1-6)]Man(b1-4)GlcNAc(b1-4)[Fuc(a1-6)]GlcNAc
In short: as §1

[11] = molecular target: Fuc(a1-2)Gal(b1-3)GlcNAc(b1-3)Gal(b1-4)Glc
In short: as §1

[12] = molecular target: Fuc(a1-2)Gal(b1-3)GlcNAc(b1-3)GalNAc
In short: as §1

[13] = molecular target: Fuc(a1-2)Gal(b1-3)GlcNAc(b1-3)[Fuc(a1-2)Gal(b1-3)GlcNAc(b1-6)]GalNAc
In short: as §1

[14] = molecular target: Fuc(a1-2)Gal(b1-3)GlcNAc(b1-3)[Gal(b1-4)GlcNAc(b1-6)]Gal(b1-4)Glc
In short: as §1

[15] = molecular target: Fuc(a1-2)Gal(b1-3)GlcNAc(b1-3)[Neu5Ac(a2-6)Gal(b1-4)GlcNAc(b1-6)]Gal(b1-4)Glc
In short: as §1

[16] = molecular target: Fuc(a1-2)Gal(b1-3)GlcNAc6S
In short: as §1

[17] = molecular target: Fuc(a1-2)Gal(b1-3)[Fuc(a1-4)]GlcNAc
In short: as §1

[18] = molecular target: Fuc(a1-2)Gal(b1-3)[Fuc(a1-4)]GlcNAc(b1-2)Man(a1-3)[Fuc(a1-2)Gal(b1-3)[Fuc(a1-4)]GlcNAc(b1-2)Man(a1-3)]Man(b1-4)GlcNAc(b1-4)GlcNAc
In short: as §1

[19] = molecular target: Fuc(a1-2)Gal(b1-3)[Fuc(a1-4)]GlcNAc(b1-2)Man(a1-3)[Fuc(a1-2)Gal(b1-3)[Fuc(a1-4)]GlcNAc(b1-2)Man(a1-6)]Man(b1-4)GlcNAc(b1-4)[Fuc(a1-6)]GlcNAc(b1-4)[Fuc(a1-6)]GlcNAc
In short: as §1

[20] = molecular target: Fuc(a1-2)Gal(b1-3)[Fuc(a1-4)]GlcNAc(b1-3)[Fuc(a1-3)[Gal(b1-4)]GlcNAc(b1-6)]Gal(b1-4)Glc
In short: as §1

[21] = molecular target: Fuc(a1-2)Gal(b1-3)[Fuc(a1-4)]GlcNAc(b1-3)[Gal(b1-4)GlcNAc(b1-6)]Gal(b1-4)Glc
In short: as §1

[22] = molecular target: Fuc(a1-2)Gal(b1-4)Fuc(a1-3)]GlcNAc(b1-2)Man(a1-3)[Fuc(a1-2)Gal(b1-4)[Fuc(a1-3)]GlcNAc(b1-2)Man(a1-6)]Man(b1-4)GlcNAc(b1-4)GlcNAc
In short: as §1

[23] = molecular target: Fuc(a1-2)Gal(b1-4)Glc
In short: as §1

[24] = molecular target: Fuc(a1-2)Gal(b1-4)Glc6S
In short: as §1

[25] = molecular target: Fuc(a1-2)Gal(b1-4)GlcNAc
In short: as §1

[26] = molecular target: Fuc(a1-2)Gal(b1-4)GlcNAc(b1-2)Man
In short: as §1

[27] = molecular target: Fuc(a1-2)Gal(b1-4)GlcNAc(b1-2)Man(a1-3)[Fuc(a1-2)Gal(b1-4)GlcNAc(b1-2)Man(a1-6)]Man(b1-4)GlcNAc(b1-4)GlcNAc
In short: as §1

[28] = molecular target: Fuc(a1-2)Gal(b1-4)GlcNAc(b1-2)Man(a1-3)[Fuc(a1-2)Gal(b1-4)GlcNAc(b1-2)Man(a1-6)]Man(b1-4)GlcNAc(b1-4)[Fuc(a1-6)]GlcNAc
In short: as §1

[29] = molecular target: Fuc(a1-2)Gal(b1-4)GlcNAc(b1-2)[Fuc(a1-2)Gal(b1-4)GlcNAc(b1-4)]Man(a1-3)[Fuc(a1-2)Gal(b1-4)GlcNAc(b1-2)Man(a1-6)]Man(b1-4)GlcNAc(b1-4)GlcNAc
In short: as §1

[30] = molecular target: Fuc(a1-2)Gal(b1-4)GlcNAc(b1-3)Gal(b1-4)GlcNAc
In short: as §1

B1: Als1 (Candida albicans), P46590 (protein)
chain: KTITGVFDSFNSLTWSNAANYAFKGPGYPTWNAVLGWSLDGTSANPGDTFTLNMPCVFKYTTSQTSVDLTADGVKYATCQFYSGEEFTTFSTLTCTVNDALKSSIKAFGTVTLPIAFNVGGTGSSTDLEDSKCFTAGTNTVTFNDGDKDISIDVEFEKSTVDPSGYLYASRVMPSLNKVTTLFVAPQCENGYTSGTMGFSSSNGDVAIDCSNIHIGITKGLNDWNYPVSSESFSYTKTCTSNGIQIKYQNVPAGYRPFIDAYISATDVNQYTLAYTNDYTCAGSRLQSKPFTLRWTGYKNSDAGSNGIVIVATTRTVTDSTTAVTTLPFNPSVDKTKTIEILQPIPTTTITTSYVGVTTSYLTKTAPIGETATVIVDVPYHTTTTVTSEWTGTITTTTTRTNPTDSIDTVVVQVP
[1]
  glycan array binding signal (z-score): -0.33
[2]
  glycan array binding signal (z-score): -0.221
[3]
  glycan array binding signal (z-score): -0.242
[4]
  glycan array binding signal (z-score): -0.216
[5]
  glycan array binding signal (z-score): 3.32
[6]
  glycan array binding signal (z-score): -0.612
[7]
  glycan array binding signal (z-score): -0.178
[8]
  glycan array binding signal (z-score): -0.524
[9]
  glycan array binding signal (z-score): -0.318
[10]
  glycan array binding signal (z-score): -0.229
[11]
  glycan array binding signal (z-score): -0.544
[12]
  glycan array binding signal (z-score): -0.107
[13]
  glycan array binding signal (z-score): -0.472
[14]
  glycan array binding signal (z-score): -0.807
[15]
  glycan array binding signal (z-score): 0.148
[16]
  glycan array binding signal (z-score): -0.587
[17]
  glycan array binding signal (z-score): 0.197
[18]
  glycan array binding signal (z-score): 0.22
[19]
  glycan array binding signal (z-score): -0.25
[20]
  glycan array binding signal (z-score): -0.205
[21]
  glycan array binding signal (z-score): 0.325
[22]
  glycan array binding signal (z-score): 0.691
[23]
  glycan array binding signal (z-score): -0.085
[24]
  glycan array binding signal (z-score): 1.13
[25]
  glycan array binding signal (z-score): -0.013
[26]
  glycan array binding signal (z-score): 0.12
[27]
  glycan array binding signal (z-score): -0.217
[28]
  glycan array binding signal (z-score): 1.97
[29]
  glycan array binding signal (z-score): 0.501
[30]
  glycan array binding signal (z-score): -0.571
